The supplement of paper PMC3334620
Whole data set: some 33,000 sequences, median “E-score (-0.5 to 0.5)” near -0.011, cut for the highest 2% near 0.28. Some of the results follow.

target: T1, Gcr1 (UniProt P07261); assay: PBM E-score (8-mer binding enrichment) (E-score (-0.5 to 0.5)); higher = stronger / more preferred TF binding; most listed sequences are background and not binding sites; conditions: protein concentration: 100 nM; construct: GST-full length
T1 sequence: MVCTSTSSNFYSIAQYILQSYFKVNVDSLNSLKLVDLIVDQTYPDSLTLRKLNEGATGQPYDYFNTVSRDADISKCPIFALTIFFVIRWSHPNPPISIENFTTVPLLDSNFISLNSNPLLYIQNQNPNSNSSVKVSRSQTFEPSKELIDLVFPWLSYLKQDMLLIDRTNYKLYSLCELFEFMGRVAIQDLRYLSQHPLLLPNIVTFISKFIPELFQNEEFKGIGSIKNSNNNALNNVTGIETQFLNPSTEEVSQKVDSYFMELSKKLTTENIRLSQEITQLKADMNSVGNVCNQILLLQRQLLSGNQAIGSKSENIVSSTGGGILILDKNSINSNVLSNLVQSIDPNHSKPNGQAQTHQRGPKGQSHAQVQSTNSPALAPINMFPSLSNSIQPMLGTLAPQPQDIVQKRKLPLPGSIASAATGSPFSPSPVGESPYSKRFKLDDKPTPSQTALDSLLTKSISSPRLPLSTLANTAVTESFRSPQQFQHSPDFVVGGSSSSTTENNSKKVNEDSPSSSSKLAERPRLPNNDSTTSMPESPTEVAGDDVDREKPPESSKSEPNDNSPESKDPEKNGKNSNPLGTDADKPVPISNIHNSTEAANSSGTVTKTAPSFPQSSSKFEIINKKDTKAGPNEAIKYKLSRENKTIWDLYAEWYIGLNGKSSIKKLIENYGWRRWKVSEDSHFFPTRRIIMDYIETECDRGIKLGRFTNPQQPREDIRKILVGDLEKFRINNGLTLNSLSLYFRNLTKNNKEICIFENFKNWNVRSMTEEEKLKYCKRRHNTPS
How it was run: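 Full-length yeast transcription factors or their DNA-binding domains, GST-tagged and expressed with PURExpress, were applied at about 100-200 nM to universal all-10-mer Agilent arrays. These arrays had been made double-stranded by primer extension on fresh or once-stripped slides. Detection used fluorescent anti-GST, normalisation used masliner, and E-scores for ungapped eight-base words pooled with reverse complements came from the Universal PBM Analysis Suite.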

| Sequence | PBM E-score |
| --- | --- |
| AGCAGGCC | -0.185 |
| AATCATGG | -0.0101 |
| TGAGGGAA | -0.101 |
| ATTTAAGG | 0.172 |
| CTGTGAGC | -0.061 |
| ATCTCGAA | -0.0489 |
| ATTTCTGG | 0.15 |
| GGAGGATA | -0.0608 |
| CTAGTCTC | 0.0256 |
| CAACGCAC | -0.152 |
| ATAATAGC | 0.085 |
| CCCTACAC | -0.164 |
| CGTCATCA | 0.0868 |
| AATGAGGT | -0.024 |
| TACACGTA | 0.228 |
| CAAGGAGC | -0.189 |
| CCCACAAG | 0.0598 |
| AAGGATCG | -0.0479 |
| CCTGTTCA | -0.00978 |
| AAATTTTC | 0.0295 |
| CACTTAGC | -0.041 |
| ACTTGTGG | 0.182 |
| ACCTATCC | 0.0168 |
| CATGACTA | -0.0863 |
| AATTAATG | -0.024 |

| Sequence | PBM E-score |
| --- | --- |
| TCGAGACA | -0.00343 |
| CCGGGGCC | 0.165 |
| CCCCCCCC | -0.268 |
| AGGTACTA | -0.094 |
| CAAACTTC | 0.0815 |
| CCCTGGGC | -0.166 |
| TCGACTAA | 0.0376 |
| CCGTGTCA | -0.125 |
| CTGCTACA | 0.0929 |
| CGCGGAGA | 0.0066 |
| ATTCCTGA | 0.299 |
| AAATGACA | -0.0546 |
| CACGGACC | -0.112 |
| GTCCGATA | -0.00964 |
| TGTCGCAA | -0.124 |
| AACCCTAG | -0.0645 |
| AGTATCCG | 0.247 |
| ATATCCGA | 0.0833 |
| ACGGAGTC | -0.0283 |
| CCCCGGTA | -0.0463 |
| CACCCCCC | -0.285 |
| AAAACAGC | 0.0413 |
| ACACAGGA | 0.0754 |
| GCATGAGC | -0.229 |
| CGTCCAGC | -0.0635 |

| Sequence | PBM E-score |
| --- | --- |
| ATTGTGGC | 0.203 |
| AAACGACC | -0.0697 |
| AAACCTCA | -0.0305 |
| GAGGACGC | 0.289 |
| GAATGAGC | -0.26 |
| GAGCTGGC | -0.138 |
| CCGTAGTC | -0.103 |
| AAATAAAT | 0.0849 |
| CATGTGCG | 0.0235 |
| GAGCTGTA | -0.114 |
| GGCGGCAC | -0.084 |
| CCCTGTTA | 0.182 |
| AGTGGTGG | 0.305 |
| CGTGCCAA | -0.0428 |
| AGGGGCTA | -0.0337 |
| CGTCACTC | -0.111 |
| TCACGCAA | -0.2 |
| ATGGACTC | 0.201 |
| ATTGTAAA | 0.0287 |
| ATTCAACG | -0.0253 |
| ACCTATAC | 0.131 |
| CTGGGTCA | -0.0878 |
| TATAGATA | 0.0291 |
| AAGCCCCC | 0.057 |
| TACCACCA | 0.0815 |

| Sequence | PBM E-score |
| --- | --- |
| ATTTCTGA | -0.0909 |
| GCATGGGC | -0.0196 |
| CTAAACGC | 0.0998 |
| CCCTCATA | 0.0348 |
| AGTTTTCG | 0.114 |
| ATACTTAG | 0.185 |
| GGCCTGCA | -0.237 |
| GGGGCAAC | -0.0383 |
| GTTTCTGA | 0.076 |
| TGCTCGAA | -0.191 |
| ATAGAATG | -0.0971 |
| CGCGAGCA | -0.0802 |
| CCCTAAAC | -0.00244 |
| GGGAGTTA | -0.104 |
| CGGACCAA | -0.13 |
| CGGGTCTC | -0.146 |
| AACCAGAT | 0.228 |
| ACCGTAAC | -0.00149 |
| AGACTAAC | -0.215 |
| CATGCCGA | 0.041 |
| AGTTCAAC | -0.106 |
| CTCCAACA | -0.173 |
| CATACGAC | -0.104 |
| ATACTCAA | 0.0634 |
| CATTAGGC | -0.0378 |

| Sequence | PBM E-score |
| --- | --- |
| CAACTGTG | 0.0437 |
| AGGGGGCG | -0.0651 |
| AGTCTACA | -0.0761 |
| TCTAGAAA | 0.073 |
| TAATACGA | 0.125 |
| AGACCTAA | -0.0474 |
| CAATCCCC | -0.0913 |
| ACCGTTTA | 0.0358 |
| AAGTTAAG | 0.0264 |
| ATTAGTGG | 0.388 |
| CTCTATAC | -0.0351 |
| AGCGCTAA | -0.0506 |
| TAACAAGA | 0.13 |
| AATAACCC | -0.00103 |
| CGGACTCA | -0.0589 |
| AATGTGGT | 0.0604 |
| GATATGAC | -0.0755 |
| GGACTCCC | 0.263 |
| AAATACAG | -0.0546 |
| ACGACCTA | -0.0425 |
| AGGGCTTA | -0.262 |
| ACCTTCCA | 0.127 |
| AGCGTGAG | 0.0746 |
| ATGCAGTG | -0.0911 |
| AATTCGCT | -0.0547 |

| Sequence | PBM E-score |
| --- | --- |
| CCTGTGGA | -0.0896 |
| GCAAGATA | 0.0546 |
| ATGCCGGC | 0.121 |
| GCGACCGC | -0.0355 |
| ACGCTAAC | -0.0737 |
| AGAGGTGC | -0.0545 |
| CTAGATGA | -0.106 |
| CAGGCACA | -0.23 |
| GAGGTTTA | -0.108 |
| GTAATAAC | -0.0815 |
| GTGCTGGA | 0.221 |
| ATCGGACC | 0.068 |
| GACGCCAC | 0.195 |
| AAGGAAGC | 0.452 |
| TAGAACCA | 0.0906 |
| ACCCCGCG | -0.208 |
| CCCCCAAC | -0.261 |
| GTAGCAGA | -0.0597 |
| AGTGAGTC | 0.062 |
| ACCTCAGT | 0.141 |
| CAATTTGC | -0.0413 |
| GCCCTTCC | -0.0423 |
| ATTTAGAG | 0.131 |
| AAGCGTTA | -0.123 |
| ATATGCAG | -0.154 |

| Sequence | PBM E-score |
| --- | --- |
| GCTGGTCA | -0.151 |
| ATGGTGGA | -0.229 |
| CCGTTTAG | 0.0929 |
| AACTGTCT | -0.0525 |
| AGCAGTGA | 0.0121 |
| AGGGTCGA | -0.161 |
| CCTCAAAG | -0.265 |
| CACGGTGG | -0.0173 |
| ACCGGGGC | 0.107 |
| GCGAAGTA | -0.109 |
| ACAATGAG | 0.154 |
| CCACGCTC | -0.128 |
| ATCGACAC | -0.189 |
| ACGGTGAC | -0.122 |
| CTTCACAA | -0.15 |
| CGAGAAAC | 0.065 |
| ATCGGGAG | -0.0827 |
| ATTCGCTG | 0.139 |
| AACCGCTT | 0.024 |
| GACCGCGC | -0.245 |
| AAGCGGAC | 0.00583 |
| CCCCCACA | 0.0968 |
